SMILES strings stand for the structures.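 These data come from cells grown in 96-well plates and exposed to compound for 48 hours at five concentrations. Abbreviation: GI50, concentration required for 50% inhibition of growth.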 Not every entry of the source has a single result; some have several. The other results are left out here. An entry can have further records. For some assays here: Values that stand side by side are repeats in other runs, samples, wells, individuals or studies. Brackets tell where a record comes from. A, B and so on number the origins entry by entry.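 TGI: concentration producing complete growth inhibition.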 For some assays here: A record mostly stands for its own series of concentrations, which the source does not state; some values may only mark the edge of a range.

Some test systems named below: NCI-H522 lung; SNB-75 CNS; UACC-257 melanoma; T-47D breast; HOP-92 NSCLC; RXF 393 renal; RPMI-8226 leukemia; HT29 colon; MOLT-4 leukemia; HOP-62 NSCLC; SK-MEL-2 melanoma; M14 melanoma; K-562 leukemia; COLO 205 colon; CCRF-CEM leukemia; OVCAR-8 ovarian; A549 NSCLC; OVCAR-3 ovarian; MALME-3M melanoma; HCC-2998 colon; DU-145 prostate; SR leukemia; TK-10 renal; KM12 colon.

Holding throughout (test): inhibition of tumour cell growth, NCI panel, 48 h

Consider `c1ccc2cc(C[n+]3ccn(Cc4ccc5ccccc5n4)c3)ccc2c1`, for which the TGI in the assay on NCI-H522 lung was 986 nM [sample A, 1 test] and 12.4 µM [sample B, 1 test]; in the assay on SNB-75 CNS, 891 nM [sample A, 1 test] and 11.6 µM [sample B, 1 test]; with UACC-257 melanoma it was 808 nM [sample A, 1 test] and 9.94 µM [sample B, 1 test]; in the assay with T-47D breast, 823 nM [sample A, 1 test] and 16.7 µM [sample B, 1 test]; in the assay on HOP-92 NSCLC it was 671 nM [sample A, 1 test] and 8.82 µM [sample B, 1 test]; in the assay on RPMI-8226 leukemia, 827 nM [sample A, 1 test] and 12.9 µM [sample B, 1 test]. The GI50 in the assay with SNB-75 CNS was 198 nM [sample A, 1 test] and 2.25 µM [sample B, 1 test]; in the assay with RXF 393 renal, 417 nM [sample A, 1 test] and 4.56 µM [sample B, 1 test].

For `COc1cc2c(c(OC)c1OC)-c1ccc(SC)c(=O)cc1[C@@H](NC(=O)c1ccc([N+](=O)[O-])cc1)CC2`, the TGI was 7.05 nM and 10.1 µM in the assay on HT29 colon; 9.22 µM and > 100 µM with MOLT-4 leukemia; 25 µM and 50.9 nM in the assay with HOP-62 NSCLC; 1.29 µM and > 100 µM in the assay with SNB-75 CNS; 882 nM and 26.3 µM in the assay with SK-MEL-2 melanoma; 9.44 µM and > 100 µM in the assay with UACC-257 melanoma. Also, the TGI was 7.94 nM and 8.53 µM in the assay with M14 melanoma; 25 µM and 1.53 µM in the assay with RXF 393 renal.

For `O=C1C(Br)=C(Br)C(=O)c2ccccc21`, the TGI in the assay on MOLT-4 leukemia was 90.2 µM [sample A, 1 test] and 4.23 µM [sample B, mean of 3 tests]; in the assay on COLO 205 colon it was > 100 µM [sample A, 1 test] and 7.34 µM [sample B, mean of 3 tests]; in the assay on CCRF-CEM leukemia it was > 100 µM [sample A, 1 test] and 5.75 µM [sample B, mean of 2 tests]. For the same compound, the GI50 with K-562 leukemia is > 100 µM [sample A, 1 test] and 2.89 µM [sample B, mean of 3 tests]; with COLO 205 colon, > 100 µM [sample A, 1 test] and 2.96 µM [sample B, mean of 3 tests].

Consider `Cc1c2oc3c(C)cc(F)c(C(=O)NC4C(=O)NC(C(C)C)C(=O)N5CCCC5C(=O)N(C)CC(=O)N(C)C(C(C)C)C(=O)OC4C)c3nc-2c(C(=O)NC2C(=O)NC(C(C)C)C(=O)N3CCCC3C(=O)N(C)CC(=O)N(C)C(C(C)C)C(=O)OC2C)c(N)c1=O` (stereo not given), for which the TGI was 1.71 µM and 22.1 µM with HOP-62 NSCLC; 3.49 µM and > 100 µM in the assay on OVCAR-8 ovarian; 13.9 nM and 2.36 µM with K-562 leukemia; 2.22 µM and 25 µM in the assay with A549 NSCLC; 201 nM and 12 µM with UACC-257 melanoma; 1.86 µM and > 100 µM in the assay with OVCAR-3 ovarian. For the same compound, the TGI in the assay on MALME-3M melanoma was 255 nM and 2.98 µM; in the assay on HCC-2998 colon it was 519 nM and > 100 µM; in the assay with M14 melanoma it was 1.8 µM and > 100 µM; in the assay with DU-145 prostate, 8.47 µM and > 100 µM; in the assay with RPMI-8226 leukemia, 7.66 nM and > 100 µM; with SR leukemia, 71 nM and > 100 µM. For the same compound, the TGI in the assay with TK-10 renal was 9.34 µM and > 100 µM; in the assay with KM12 colon it was 251 nM and 98.5 µM.

Values taken from PubChem BioAssay (NCI).
